This note sets out measurements from patent US9982037B2 (priority 2012, dated 2018).

The subject of data set [1] is HA polypeptides from different Influenza subtypes. Description: ELISA fractional saturation, equilibrium dissociation constant (KD). The format is binding, influenza virus. The following applies: FIG. 2. On the technique in general: In an ELISA, binding on a coated surface is turned into a signal by an enzyme label.
Data set [2] deals with H1N1 PR8 virus. Details: species or system BALB/c mice. The note with it: mouse, in vivo.
Data set [3] can be described thus: Pharmacokinetic evaluation in mice, serum antibody by ELISA. The format is in vivo, BALB/c mice. The note with it: single bolus injection of 5 mg/ml of antibody, FIG. 9.
The test system of data set [4] is PR8 Virus (H1N1). The format is cell-based, influenza virus.
Data set [5] relates to H1N1 PR8 virus. Details: species or system BALB/c mice. The note with it: mouse, in vivo. This is another data set of the same source.

B1: exemplary antibody: Anti-HA monoclonal antibody with VH chain SEQ ID NO: 1 and VL chain SEQ ID NO: 33 (Table 4) (antibody, V domains shown)
VH: EVQLLESGGGLVKPGQSLKLSCAASGFTFTSYGMHWVRQPPGKGLEWVAVISYDGSYKYYADSVQGRFTISRDNSKNTLYLQMNSLRAEDTAVYYCAKDSELRSLLYFEWLSQGYFNPWGAGTTLTVSSASTK
VL: EIVMTQSPDSLAVSLGERATINCKSSQSVTYNYKNYLAWYQQKPGQPPKLLIYWASTRESGVPDRFSGSGSGTDFTLTISSLQAEDVAVYYCQQYYRTPPTFGGGTKLDIKGS
modifications: Exemplary VH Chain; Exemplary VL Chain
Consider B1, for which, in data set [1], the “specificity of binding to HA” value is on record as “binds specifically to HA”. Also, in data set [2], the survival rate result is listed as “increased survival rate” and the “viral associated weight loss” value is “reversal in viral associated weight loss”. The “time of peak serum concentration” value in data set [3] was “approximately 30 hours”. Further, the virus-induced plaque production entry in data set [4] is listed as “inhibits virus-induced plaque production”. Besides, in data set [5], the “level of infection (viral load, bronchio-aveolar lavage, qPCR)” value is “reduced level of infection”; the “onset / development of H1N1 infection” value is “delays the development of H1N1 infection”; the “weight loss post infection” value is reported as “little to no weight loss”.
